The assay relates to Plasmodium falciparum NF54 stage V gametocytes. In words: viability index relative to DMSO control (fraction); higher = less gametocyte killing. Particulars: 2.5 µM, incubation time: 72 h. The gist of the method:
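Gametocytes (P. falciparum NF54, stage V) were treated with compound at 2.5 µM for 72 hr at 37°C in low oxygen, in serum-free medium at 0.75% gametocytemia and 1.25% hematocrit. Counts of 20–70 µm2 red particles, taken from one field per well after MitoTracker Red CMXRos with saponin, were divided by the plate mean of solvent-only wells. This ratio is the viability index.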

[1] abbreviates: library set: Broad Institute DOS.

± gives the uncertainty stated by the source. The full ranking holds about 9,900 compounds; the median of “viability index relative to DMSO control” is about 1, and the lowest 2% start at about 0.85. The list shows a part of the results.

In the case of `Cc1ccc(S(=O)(=O)Nc2ccc3c(c2)CC(=O)N([C@H](C)CO)C[C@@H](C)[C@@H](CN(C)S(=O)(=O)c2ccccc2)O3)cc1`, the viability index under setting [1] was found to be 0.949 ± 0.021.
Same read-out and setting: for `O=C(NC1CCCC1)N[C@@H]1C=C[C@@H](CC(=O)N2CCOCC2)O[C@@H]1CO` the value was 1.08 ± 0.096; for `C[C@@H]1CCn2cc(nn2)COC[C@H](c2ccccc2)NC1=O`, 0.932 ± 0.072.
Turning to `CN1C(=O)c2cc(NC(=O)Nc3ccccc3Cl)ccc2OC[C@@H]2O[C@H](CC(=O)NCCCN3CCOCC3)CC[C@H]21`, the viability index under setting [1] was found to be 1.14 ± 0.13.
The compound `CCCNC(=O)N1C[C@]2(CCN(CC2)C(=O)Cc2cccnc2)c2c([nH]c3cc(OC)ccc23)[C@@H]1CO` yielded a viability index under setting [1] of 1.06 ± 0.12.
As to `Cc1noc(C)c1NC(=O)Nc1ccc2c(c1)C(=O)N([C@H](C)CO)C[C@@H](C)[C@H](CN(C)S(=O)(=O)c1cccs1)OCCCC[C@@H](C)O2`, the viability index under setting [1] was determined as 1.04 ± 0.023.
`CCCNC(=O)N1C[C@]2(CCN(CC2)S(=O)(=O)c2ccccc2)c2c([C@@H]1CO)n(C)c1cc(OC)ccc21` showed a viability index under setting [1] of 1.02 ± 0.017.
`COc1ccc2c3c([C@@H](CO)N(C[C@]33CCN(Cc4ccncc4)CC3)C(=O)CN3CCOCC3)n(C)c2c1` returned a viability index under setting [1] of 1.04 ± 0.013.
Turning to `CCC(=O)N1CC(=O)N2[C@H](C1)[C@@H](c1ccc(C#CCC(C)C)cc1)[C@@H]2CO`, under setting [1], the viability index was 0.937 ± 0.026.
For `CCS(=O)(=O)N1CC2(C1)[C@@H](c1ccccc1)[C@@H](CO)N2Cc1ccccn1`, under setting [1], the viability index was 1.1 ± 0.034.
`CCNC(=O)[C@H]1[C@H](CO)[C@H]2Cn3c(ccc(-c4cncnc4)c3=O)[C@H]2N1C(=O)NC1CCCC1`: the viability index under setting [1] is 1 ± 0.035.
On to `COc1ccccc1-c1cccc(-c2nc(C(=O)NCc3ccncc3)cc3c2[C@H](CCO)N([S@@](=O)C(C)(C)C)C3)c1`, for which the viability index under setting [1] was 1.08 ± 0.025.
Where the note is “library set: Broad Institute Blood Stage”, `COc1ccc(NC(=O)N(C)C[C@H]2Oc3c(NC(=O)Nc4ccccc4)cccc3C(=O)N([C@@H](C)CO)C[C@H]2C)cc1` registered a viability index of 0.724 ± 0.05.
`COCC(=O)N1[C@@H](C#N)[C@@H](c2ccccc2C2=CCCC2)[C@@H]1CO` had a viability index under setting [1] of 1.08 ± 0.044.
`O=C(c1cccc(F)c1)N1CC2(C1)[C@@H](c1ccccc1)[C@@H](CO)N2C(=O)C1CCCCC1` had a viability index under setting [1] of 1.1 ± 0.041.
In turn, `CC(C)NC(=O)Nc1ccc2c(c1)C(=O)N([C@@H](C)CO)C[C@H](C)[C@@H](CN(C)C(=O)C1CCCCC1)OCCCC[C@H](C)O2` gave a viability index under setting [1] of 1.03 ± 0.082.
Same read-out and setting: for `COCC(=O)Nc1ccc2c(c1)C(=O)N(C)C[C@H](OC)[C@@H](C)CN(C(=O)c1ccncc1)[C@H](C)CO2` the value was 1.14 ± 0.035.
`C[C@@H]1CN([C@H](C)CO)C(=O)c2c(c3ccccc3n2C)-c2ccccc2CO[C@@H]1CN(C)C` had a viability index under setting [1] of 0.985 ± 0.16.
As for `CCCC(=O)N1C[C@@]2(C1)CN(Cc1ccccc1F)[C@@H](CO)c1c2c2ccc(OC)cc2n1C`, the viability index under setting [1] stood at 1.05 ± 0.09.
Regarding `COc1ccc(S(=O)(=O)N(C)C[C@H]2OCCCC[C@H](C)Oc3ccc(NC(=O)Cc4ccccc4)cc3C(=O)N([C@@H](C)CO)C[C@@H]2C)cc1`, the viability index under setting [1] is 1.08 ± 0.053.
Under setting [1], `O=C(c1ccc(F)cc1)N1CC(=O)N2[C@H](CO)[C@@H](c3ccc(C#CCC4CCCC4)cc3)[C@@H]2C1` yielded a viability index of 1.05 ± 0.035.
Under setting [1], `CO[C@@H]1CN(C)C(=O)c2cc(NC(=O)NC3CCCCC3)ccc2OC[C@H](C)N(CC2CCOCC2)C[C@@H]1C` gave a viability index of 1.04 ± 0.039.
Consider `C[C@H](CO)N1C[C@H](C)[C@H](CN(C)C(=O)[C@H](Cc2ccccc2)N(C)C)OCc2ccccc2-c2ccccc2C1=O`, for which the viability index under setting [1] is 0.975 ± 0.12.
As to `O=C(C1CCOCC1)N1CC(=O)N2[C@H](CO)[C@H](c3ccc(C#CCc4ccccc4)cc3)[C@H]2C1`, under setting [1], the viability index was determined as 1.07 ± 0.076.
`O=C(c1cnccn1)N1CC(=O)N2[C@H](C1)[C@H](c1ccc(-c3cccc(F)c3)cc1)[C@@H]2CO` came in with a viability index under setting [1] of 0.926 ± 0.048.
In turn, `COc1ccc(NC(=O)N2CCCCN3[C@H](CO)[C@H](c4ccc(-c5ccccc5F)cc4)[C@@H]3C2)cc1` displayed a viability index under setting [1] of 1.14 ± 0.064.
`Cc1ccccc1-c1ccc([C@H]2[C@H]3CN(S(C)(=O)=O)CC(=O)N3[C@H]2CO)cc1`: under setting [1], the viability index was 0.975 ± 0.047.
As for `CC(C)NC(=O)N1[C@H](C#N)[C@H](c2ccccc2-c2ccc(F)cc2)[C@@H]1CO`, the viability index under setting [1] was found to be 0.934 ± 0.039.
Regarding `CCC(=O)N1CC2(C1)[C@@H](c1ccc(-c3ccccc3C)cc1)[C@@H](CO)N2C(=O)CC`, the viability index under setting [1] was 1 ± 0.01.
Regarding `CC(=O)N1[C@@H](CO)[C@H](c2ccccc2)[C@@H]1CNC(=O)CN1CCOCC1`, under setting [1], the viability index was found to be 1.06 ± 0.045.
Turning to `COc1ccc(S(=O)(=O)Nc2ccc3c(c2)C(=O)N([C@H](C)CO)C[C@@H](C)[C@@H](CN(C)S(=O)(=O)c2ccc(Cl)cc2)OCCCC[C@H](C)O3)cc1`, the viability index under setting [1] came to 0.864 ± 0.13.
In the case of `O=C(C[C@@H]1C=C[C@@H](NC(=O)CCN2CCCCC2)[C@H](CO)O1)Nc1nccs1`, the viability index under setting [1] was determined as 0.9128 ± 0.0086.
`O=C1N[C@@H](c2ccccc2)COCc2cnnn2CC[C@@H]1Cc1ccc(C(F)(F)F)cc1` returned a viability index under setting [1] of 1.0478 ± 0.0005.
Take `OC[C@@H]1[C@@H](c2ccccc2)C2(CN(Cc3cc(F)ccc3F)C2)N1CC1CCCC1`: the viability index under setting [1] came to 1.01 ± 0.015.
In turn, `CCCNC(=O)N1CC(=O)N2[C@H](C1)[C@@H](c1ccc(-c3ccc(F)cc3)cc1)[C@@H]2CO` gave a viability index under setting [1] of 1.06 ± 0.045.
For `C[C@H](NC(=O)C[C@H]1C=C[C@H](NC(=O)c2cccnc2)[C@@H](CO)O1)c1ccccc1`, the viability index under setting [1] amounted to 1.08 ± 0.069.
The compound `COc1ccc(S(=O)(=O)Nc2ccc3c(c2)C(=O)N([C@H](C)CO)C[C@H](C)[C@H](CN(C)C(=O)Nc2c(C)noc2C)OCCCC[C@@H](C)O3)cc1` showed a viability index under setting [1] of 1.05 ± 0.069.
The same measure, in the same setting: next, `O=C(C[C@H]1CC[C@H]2[C@@H](COC[C@H](O)CN2Cc2nccs2)O1)NCc1ccccc1Cl`: 1.1 ± 0.057; `CO[C@@H]1CN(C)C(=O)c2cc(NS(=O)(=O)Cc3ccccc3)ccc2OC[C@@H](C)N(Cc2nccs2)C[C@H]1C`: 0.972 ± 0.021; `COCCNC(=O)C[C@@H]1CC[C@@H]2[C@@H](COc3ccc(NS(=O)(=O)c4ccc(Cl)cc4)cc3C(=O)N2C)O1`: 1.1 ± 0.092.
Consider `CCNC(=O)C[C@H]1CC[C@@H]2[C@H](COC[C@@H](O)CN2C(=O)C2CCCC2)O1`, for which the viability index under setting [1] was determined as 1.047 ± 0.0089.
Still for that read-out and setting: next, `CN(C)C(=O)C[C@@H]1CC[C@H]2[C@@H](COc3ccc(NC(=O)C4CCCCC4)cc3C(=O)N2C)O1`: 0.984 ± 0.11.
On the same count and under the same terms, for `CO[C@@H](CN(C)S(=O)(=O)c1ccc(C)cc1)[C@@H](C)CN([C@H](C)CO)S(=O)(=O)c1cccc(Cl)c1` the value was 1.05 ± 0.068; for `O=C(C[C@H]1CC[C@@H]2[C@H](COC[C@@H](O)CN2C(=O)Nc2ccc(Cl)cc2)O1)NCC1CCCCC1`, 1.02 ± 0.02.
With `COc1cccc(-c2ccccc2[C@H]2[C@@H](C#N)N(C(=O)c3ccccn3)[C@@H]2CO)c1`, the viability index under setting [1] was found to be 1.07 ± 0.16.
The compound `COc1cccc(NC(=O)N2CC3(C2)[C@H](c2ccccc2)[C@@H](CO)N3C(C)=O)c1` returned a viability index under setting [1] of 1.089 ± 0.0018.
`COc1ccc(-c2ccc([C@H]3[C@H](CO)N4C(=O)CN(Cc5ccccc5)C[C@@H]34)cc2)cc1` had a viability index under setting [1] of 1.06 ± 0.046.
The same measure, in the same setting: for `C/C=C/c1ccc2c(c1)[C@@H]1[C@@H](CCN1C(=O)c1cnccn1)[C@H](CO)N2` the value was 1.04 ± 0.025; for `COc1ccc(CNC(=O)C[C@H]2C[C@@H]3c4cc(N(C)C)ccc4O[C@@H]3[C@@H](CO)O2)cc1`, 0.982 ± 0.13; for `C[C@@H]1CCCCO[C@H](CN(C)Cc2ccncc2)[C@@H](C)CN([C@H](C)CO)C(=O)c2cc(NC(=O)Cc3ccccc3)ccc2O1`, 0.993 ± 0.079.
In turn, `C[C@@H]1CCCCO[C@@H](CN(C)Cc2ccc(Cl)c(Cl)c2)[C@@H](C)CN([C@H](C)CO)C(=O)c2cc(NC(=O)CCCCCC(=O)Nc3ccccc3N)ccc2O1` registered a viability index under setting [1] of 0.947 ± 0.062.
Compound `CCS(=O)(=O)N1CC[C@@]2(CC1)CN([C@H](CO)c1[nH]c3cc(OC)ccc3c21)S(=O)(=O)c1ccc(C)cc1` returned a viability index under setting [1] of 1 ± 0.046.
On the same count and under the same terms, for `COc1ccc2c3c([nH]c2c1)[C@H](CO)N(C[C@]31CCN(CC1)C(=O)C1CCCCC1)C(=O)NC(C)C` the value was 0.913 ± 0.072; for `CN1C(=O)c2cc(NS(C)(=O)=O)ccc2OC[C@@H]2O[C@H](CC(=O)N3CCOCC3)CC[C@@H]21`, 0.983 ± 0.21; for `C[C@@H](NC(=O)C[C@H]1C=C[C@@H](NC(=O)c2cccnc2)[C@H](CO)O1)c1ccccc1`, 0.964 ± 0.034.
The compound `C[C@@H]1CN([C@@H](C)CO)C(=O)c2c(c3ccccc3n2C)-c2ccccc2CO[C@@H]1CN(C)C(=O)Nc1ccccc1C(F)(F)F` gave a viability index under setting [1] of 0.955 ± 0.039.
The same measure, in the same setting: for `C/C=C/c1ccc([C@@H]2[C@@H](CO)N(Cc3nccs3)C23CN(CC2CCCC2)C3)cc1` the value was 1.08 ± 0.046.
Take `O=C(C[C@H]1CC[C@H]2NC[C@@H](O)COC[C@@H]2O1)N1CCc2ccccc2C1`: the viability index under setting [1] was determined as 1.03 ± 0.049.
The same measure, in the same setting: next, `COC(=O)C[C@H]1CC[C@@H]2[C@H](COc3ccc(NC(=O)Nc4cccc(C#N)c4)cc3C(=O)N2C)O1`: 1.1 ± 0.091; `CN(C[C@H]1N[C@H](CO)[C@@H]1c1ccc(-c2cccnc2)cc1)C(=O)NC1CCCC1`: 1.01 ± 0.059; `CCCNC(=O)N1C[C@H](C)[C@@H](OC)CN(C)C(=O)c2ccc(NC(=O)CC)cc2OC[C@H]1C`: 1.09 ± 0.018.
For the compound `CCCNC(=O)N1C[C@]2(CCN(CC2)C(=O)c2cccc(F)c2)c2c([nH]c3cc(OC)ccc23)[C@H]1CO`, under setting [1], the viability index turned out to be 0.967 ± 0.012.
In turn, `Cc1noc(C)c1S(=O)(=O)Nc1cccc2c1O[C@H](CN(C)Cc1ccc(C(F)(F)F)cc1)[C@H](C)CN([C@@H](C)CO)C2=O` showed a viability index under setting [1] of 0.938 ± 0.046.
On the same count and under the same terms, next, `CC(C)C#Cc1ccc([C@H]2[C@@H](CO)N3C(=O)CN(C(=O)c4ccc5c(c4)OCO5)C[C@@H]23)cc1`: 1.03 ± 0.021.
`C[C@H]1CN([C@@H](C)CO)C(=O)CCCn2nncc2CO[C@H]1CN(C)Cc1ccccc1C(=O)O` yielded a viability index under setting [1] of 1.06 ± 0.0015.
Compound `O=C(C[C@H]1C[C@H]2c3cc(NS(=O)(=O)c4ccc(F)cc4)ccc3O[C@H]2[C@@H](CO)O1)NCCN1CCCCC1` came in with a viability index under setting [1] of 1.05 ± 0.05.
`CN1C(=O)c2cc(NC(=O)Cc3cccs3)ccc2OC[C@@H]2O[C@@H](CC(=O)N[C@@H]3CCN(Cc4ccccc4)C3)CC[C@@H]21` returned a viability index under setting [1] of 1.11 ± 0.14.
For `C[C@H](CO)N1C[C@H](C)[C@@H](CN(C)S(=O)(=O)c2cccs2)Oc2ccc(NC(=O)CCCCCC(=O)Nc3ccccc3N)cc2CC1=O`, under setting [1], the viability index was found to be 1.038 ± 0.0059.
Still for that read-out and setting: for `CCS(=O)(=O)N1C[C@@]2(C1)CN([C@@H](CO)c1c2c2ccc(OC)cc2n1C)S(=O)(=O)c1ccccc1` the value was 1.04 ± 0.1.

These data come from the supplement of paper PMC4723716.
